In one assay the test system is HSkMC. As to the kind of experiment: cytotoxicity call (relative viability < 0.9). The note with it: 10 µM.
The subject of another assay is HepG2. As to the kind of experiment: cytotoxicity call (relative viability < 0.9). To be noted: 10 µM.
The next assay concerns S. aureus RN4220. As to the kind of experiment: growth inhibition call (relative growth <= 0.2). The note with it: 50 µM.

The list shows a part of the results.

With `O=C1Sc2cccc3cccc1c23`, the cytotoxicity call in the assay with HSkMC and in the assay with HepG2 was “inactive” each time. For the same compound, the growth inhibition call with S. aureus RN4220 was “inactive”.

As to `NC(=O)c1ccccc1C(N)=O`, the cytotoxicity call in the assay with HSkMC and with HepG2 was “inactive” in each case. Further, the growth inhibition call in the assay with S. aureus RN4220 was “inactive”.

With `COc1ccc(S(=O)(=O)Nc2ccc3c(c2)CC(=O)N([C@H](C)CO)C[C@@H](C)[C@H](CN(C)S(=O)(=O)c2ccc(F)cc2)O3)cc1`, the cytotoxicity call in the assay with HSkMC and with HepG2 was “inactive” in each case. The growth inhibition call in the assay on S. aureus RN4220 was “inactive”.

For `C[C@H]1CN([C@@H](C)CO)C(=O)c2cc(NC(=O)Nc3ccc(C(F)(F)F)cc3)ccc2O[C@@H]1CN(C)C(=O)NC1CCCCC1`, the cytotoxicity call in the assay with HSkMC and in the assay with HepG2 was “inactive” in each case. The growth inhibition call in the assay on S. aureus RN4220 is “inactive”.

Consider `NCc1ccccc1F`, for which the cytotoxicity call in the assay with HSkMC and in the assay on HepG2 was “inactive” in each case. The growth inhibition call in the assay on S. aureus RN4220 is “inactive”.

For the compound `Cc1ccc(S(=O)(=O)N[C@H]2CC[C@@H](CC(=O)NCc3ccc(Cl)c(Cl)c3)O[C@@H]2CO)cc1`, the cytotoxicity call in the assay with HSkMC and with HepG2 was “inactive” each time. Besides, the growth inhibition call in the assay with S. aureus RN4220 is “inactive”.

Consider `CN1CC(=O)N2CCN(C(=O)c3ccc4n[nH]nc4c3)C[C@@H]2C1=O`, for which the cytotoxicity call with HSkMC and in the assay on HepG2 was “inactive” each time. Also, in the assay with S. aureus RN4220, the growth inhibition call was “inactive”.

`C[C@H](CO)N1C[C@H](C)[C@@H](CN(C)Cc2ccc(C(F)(F)F)cc2)Oc2ccc(NS(C)(=O)=O)cc2C1=O`: the cytotoxicity call in the assay on HSkMC and with HepG2 was “inactive” in each case. In addition, the growth inhibition call with S. aureus RN4220 is “inactive”.

Turning to `C[C@H](CO)N1C[C@H](C)[C@@H](CN(C)Cc2ccc3c(c2)OCO3)Oc2c(NC(=O)Nc3ccc(C(F)(F)F)cc3)cccc2C1=O`, in the assay with HSkMC, the cytotoxicity call is “active”. For the same compound, the cytotoxicity call with HepG2 was “inactive”. Also, the growth inhibition call in the assay on S. aureus RN4220 is “inactive”.

Take `C[C@@H]1CN([C@H](C)CO)C(=O)c2cc(NC(=O)Nc3ccc(C(F)(F)F)cc3)ccc2O[C@@H](C)CCCCO[C@H]1CN(C)Cc1ccc(C(=O)O)cc1`: the cytotoxicity call in the assay on HSkMC and in the assay with HepG2 was “inactive” each time. Further, the growth inhibition call in the assay on S. aureus RN4220 was “inactive”.

As to `C[C@@H]1CCCCO[C@H](CN(C)S(=O)(=O)c2ccc(F)cc2)[C@H](C)CN([C@@H](C)CO)C(=O)c2cc(NS(C)(=O)=O)ccc2O1`, the cytotoxicity call in the assay on HSkMC and in the assay on HepG2 was “inactive” throughout. In addition, in the assay on S. aureus RN4220, the growth inhibition call was “inactive”.

For `O=C(C[C@@H]1CC[C@H](NC(=O)CN2CCOCC2)[C@@H](CO)O1)NCCc1ccccc1`, the cytotoxicity call in the assay with HSkMC and with HepG2 was “inactive” each time. Besides, in the assay with S. aureus RN4220, the growth inhibition call is “inactive”.

Regarding `COCC(=O)N1CC[C@]2(CC1)CN([C@@H](CO)c1c2c2ccc(cc2n1C)OC)C(=O)Cc1ccccc1`, the cytotoxicity call with HSkMC and in the assay on HepG2 was “inactive” in each case. Besides, in the assay with S. aureus RN4220, the growth inhibition call was “inactive”.

Take `N#CCC(=O)Nc1ccncc1`: the cytotoxicity call in the assay on HSkMC and with HepG2 was “inactive” throughout. Further, in the assay on S. aureus RN4220, the growth inhibition call was “inactive”.

Turning to `CC(C)NC(=O)Nc1ccc2c(c1)C(=O)N([C@@H](C)CO)C[C@@H](C)[C@@H](CN(C)Cc1ccc3c(c1)OCO3)O2`, the cytotoxicity call with HSkMC and with HepG2 was “inactive” in each case. Also, in the assay on S. aureus RN4220, the growth inhibition call was “inactive”.

As for `C[C@H](CO)N1C[C@H](C)[C@@H](CN(C)Cc2ccc(C(=O)O)cc2)Oc2c(NC(=O)Nc3ccc(C(F)(F)F)cc3)cccc2C1=O`, the cytotoxicity call with HSkMC and in the assay on HepG2 was “inactive” each time. For the same compound, the growth inhibition call with S. aureus RN4220 was “inactive”.

`COc1ccc2c3c([nH]c2c1)[C@@H](CO)N(C[C@]13CCN(CC1)S(=O)(=O)c1ccccc1)C(=O)c1cnccn1`: the cytotoxicity call with HSkMC and in the assay with HepG2 was “inactive” throughout. Moreover, the growth inhibition call with S. aureus RN4220 was “inactive”.

`CC(C)NC(=O)Nc1ccc2c(c1)C(=O)N([C@@H](C)CO)C[C@@H](C)[C@@H](CN(C)CC1CCCCC1)OCCCC[C@@H](C)O2`: the cytotoxicity call in the assay with HSkMC and in the assay on HepG2 was “inactive” each time. In addition, the growth inhibition call in the assay on S. aureus RN4220 was “inactive”.

With `COc1cccc(-n2cc([C@@H](C)N)cn2)c1`, the cytotoxicity call in the assay on HSkMC and with HepG2 was “inactive” in each case. Also, the growth inhibition call in the assay with S. aureus RN4220 is “inactive”.

For `C[C@H](CO)N1C[C@H](C)[C@H](CN(C)C(=O)Nc2ccc(C(F)(F)F)cc2)Oc2ccc(NS(=O)(=O)c3ccc(Cl)cc3)cc2CC1=O`, the cytotoxicity call in the assay on HSkMC and in the assay on HepG2 was “inactive” in each case. Moreover, the growth inhibition call in the assay on S. aureus RN4220 was “inactive”.

Consider `COc1ccc(CN(C)C[C@@H]2OCCCC[C@H](C)Oc3ccc(NC(=O)Cc4ccccc4)cc3C(=O)N([C@@H](C)CO)C[C@H]2C)cc1`, for which the cytotoxicity call with HSkMC and with HepG2 was “inactive” in each case. Also, the growth inhibition call with S. aureus RN4220 was “inactive”.

As to `O=C(O)[C@@H](O)Cc1ccc(O)c(O)c1`, the cytotoxicity call in the assay on HSkMC and in the assay with HepG2 was “inactive” each time. Also, the growth inhibition call in the assay on S. aureus RN4220 was “inactive”.

For `C[C@@H]1CCCCO[C@@H](CN(C)Cc2ccc3c(c2)OCO3)[C@@H](C)CN([C@@H](C)CO)C(=O)c2cc(NS(=O)(=O)c3ccccc3)ccc2O1`, the cytotoxicity call with HSkMC and in the assay with HepG2 was “inactive” each time. Besides, in the assay with S. aureus RN4220, the growth inhibition call was “inactive”.

As to `Cn1cc(CN2CCn3nnc(CO)c3C2)cn1`, the cytotoxicity call in the assay on HSkMC and in the assay with HepG2 was “inactive” in each case. Also, the growth inhibition call with S. aureus RN4220 was “inactive”.

With `CC(C)NC(=O)Nc1cccc2c1O[C@@H](CN(C)S(=O)(=O)c1ccccc1)[C@@H](C)CN([C@H](C)CO)C2=O`, the cytotoxicity call in the assay on HSkMC and in the assay on HepG2 was “inactive” each time. The growth inhibition call in the assay on S. aureus RN4220 is “inactive”.

As for `CCCSc1ccc2nc(NC(=O)OC)[nH]c2c1`, in the assay with HSkMC, the cytotoxicity call is “inactive”. Further, the cytotoxicity call in the assay on HepG2 was “active”. In addition, the growth inhibition call with S. aureus RN4220 is “inactive”.

With `Nc1nnc(-c2cccc(Cl)c2Cl)c(N)n1`, the cytotoxicity call in the assay on HSkMC (human skeletal muscle cells) and in the assay with HepG2 was “inactive” each time. Also, the growth inhibition call with S. aureus RN4220 was “inactive”.

As to `Cc1ccc(S(=O)(=O)Nc2cccc3c2O[C@H](CN(C)CC2CC2)[C@H](C)CN([C@H](C)CO)C3=O)cc1`, the cytotoxicity call in the assay with HSkMC and with HepG2 was “inactive” throughout. The growth inhibition call in the assay with S. aureus RN4220 is “inactive”.

Turning to `C/C=C/c1cccc(-c2nc(C(=O)NCc3ccccc3)cc3c2[C@H](CCO)N([S@@](=O)C(C)(C)C)C3)c1`, the cytotoxicity call in the assay with HSkMC and with HepG2 was “inactive” in each case. Besides, the growth inhibition call with S. aureus RN4220 was “inactive”.

Source of the values: the antibiotic and cytotoxicity screens of Wong et al. (2023).
